# Experimental data as given in article PMC10668032.
# The list shows a part of the results. At the low end of the ranking the order means little.
# Biological target: SIX1 homeodomain (reference allele) (UniProt Q15475)
# Experiment: universal protein binding microarray
# Settings: Universal all-10-mer PBM (8x60K, AMADID 030236), 300 nM GST-tagged protein, Alexa Fluor 488 anti-GST; buffer, salt, pH and temperature not stated; high values mean tight binding; most listed sequences are background and not binding sites; double strand, one strand shown
row,Sequence,binding signal [E-score]
1,CATACCGG,0.166
2,CAGGAAAA,0.0276
3,GCCTTAAA,-0.282
4,AAGTCTGT,-0.22
5,CAATGCAC,-0.0407
6,AGATTGAA,-0.0776
7,AAAAAGGC,-0.102
8,ACCTATAC,0.275
9,AGGTGAAG,-0.144
10,TCAATTCA,-0.034
11,AACGATAG,0.175
12,AGAGATAG,0.153
13,CCGGCCAG,-0.0713
14,GAGCGATA,0.344
15,TGTGATAA,-0.00135
16,AGGAGAGG,0.137
17,TCTTTCAA,-0.0888
18,GATTCGTA,0.109
19,ATGGGGAG,-0.0213
20,CTATGGGA,0.0544
21,AGCCTTTA,-0.189
22,GCGTTGGA,0.098

row,Sequence,binding signal [E-score]
1,AAGAGACC,0.0447
2,CACATGTA,-0.0324
3,ATTTGCAA,-0.2
4,GTTTTCAA,-0.26
5,GGTGGCTA,0.092
6,CGGCCATA,0.025
7,AACCGGGA,-0.0255
8,CTTGTGGC,-0.224
9,GAGGTGAA,-0.129
10,CGGCGTCC,-0.154
11,ACGAGGCG,0.00865
12,ACGCGCGA,0.00968
13,CCCGTAGG,0.129
14,AACCCGGG,0.177
15,ACGTCCCG,-0.239
16,GGTAAAAC,-0.147
17,CACGTAAC,-0.253
18,AGAGTTTC,-0.293
19,TGGATTAA,0.145
20,CCCTGTCA,-0.0609
21,AGAGGCTG,-0.259
22,CATGATAC,0.481

row,Sequence,binding signal [E-score]
1,GCGTAGGA,0.134
2,GAAGCTAA,-0.159
3,ACCATGCG,0.129
4,ATTTATCA,-0.051
5,GGATGTCA,0.0855
6,CCTTTTCG,-0.26
7,CAAACTCG,-0.256
8,ATCAAGAT,0.209
9,AGGCAAGA,-0.0736
10,AGATTCCG,0.0802
11,ACGATGAT,0.235
12,GCCCACCC,0.0209
13,CAGGGTAG,0.0982
14,AAAGTTAC,-0.227
15,AACTGTAA,-0.25
16,CCGCCAAA,-0.0985
17,CCGTTCAG,-0.11
18,ACTCCCTC,-0.163
19,CGATGACG,-0.17
20,CTGGGACC,-0.184
21,ACGAATTC,-0.165
22,AAGTTTAC,-0.206

row,Sequence,binding signal [E-score]
1,ACGATGAA,-0.166
2,CAATCGTC,-0.155
3,GACATGCC,0.0105
4,ACATTCCC,-0.179
5,ACTTGGGG,-0.0492
6,AAGCCTGG,-0.154
7,CAAGCAGC,-0.235
8,AGACAAAT,-0.165
9,GGCACAAC,-0.305
10,GGACCACA,-0.102
11,AAAGGCAT,-0.121
12,AAACAGCT,-0.0708
13,ATGAAAAA,-0.0614
14,CCCCGGGA,0.106
15,GGGCAGGA,0.224
16,ATTAATCG,0.16
17,ACGTATAG,0.189
18,CTCCAATC,0.0261
19,ACTTATGA,-0.148
20,AATTTAGA,-0.029
